{"source": "the supplement of paper PMC12217912", "parents": {"B1": {"name": "TEV protease; numbered along this chain (parent)", "chain": "MGESLFKGPRDYNPISSSICHLTNESDGHTTSLYGIGFGPFIITNKHLFRRNNGTLVVQSLHGVFKVKDTTTLQQHLVDGRDMIIIRMPKDFPPFPQKLKFREPQREERICLVTTNFQTKSMSSMVSDTSCTFPSGDGIFWKHWIQTKDGQCGSPLVSTRDGFIVGIHSASNFTNTNNYFTSVPKNFMELLTNQEAQQWVSGWRLNADSVLWGGHKVFMVKPEEPFQPVKEATQL"}}, "variants_of": "B1", "experiment": "raw area under fraction-flipped curve 0-4 h after induction (AUC4h, not background-subtracted), DNA-recorder readout of cleavage of the substrate (dimensionless); higher = more cleavage of the substrate by the protease variant", "conditions": "temperature: 34 °C; time window: 0-4 h after rhamnose induction", "note": "This is one part of the list. The full chains were built here from the parent and the listed change. Values near 0.05 are background.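 Also: Bxb1 expression induced with 0.2% (w/v) L-rhamnose at OD600 near 0.5, cultures sampled hourly, flipped fraction per protease–substrate barcode pair counted by paired-end Illumina sequencing.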"}
{"variant": "MGESLFKGPRDYNPISSSICHLTNESDGHTTSLYGIGFGPFIITNKHLFRRNNGTLVVQSLHGVFKVKDTTTLQQHLVDGRDMIIIRMPKDFPPFPQKLKFREPQREERICLVPTNFQTKSMSSMVSDTSCTFPSGDGIFWKHWIQTKDGQCGSPLVSTRDGFIVGIHSASNFTNTNNYFTSVPKNFMELLTNQEAQQWVSGWRLNADSVLWGGHKVFMVKPEEPFQPVKEATQL", "note": "[T114P]", "values": [{"measurement": "area with substrate ENLYFQC", "value": 0.0715}, {"measurement": "area with substrate ENLYFQE", "value": 0.0746}, {"measurement": "area with substrate ENLYFQH", "value": 0.0539}, {"measurement": "area with substrate ENLYFQI", "value": 0.0555}, {"measurement": "area with substrate ENLYFQL", "value": 0.0468}, {"measurement": "area with substrate ENLYFQN", "value": 0.0563}, {"measurement": "area with substrate ENLYFQP", "value": 0.0574}, {"measurement": "area with substrate ENLYFQQ", "value": 0.0544}, {"measurement": "area with substrate ENLYFQR", "value": 0.0607}, {"measurement": "area with substrate ENLYFQS", "value": 0.0768}, {"measurement": "area with substrate ENLYFQT", "value": 0.0761}, {"measurement": "area with substrate ENLYFQW", "value": 0.061}, {"measurement": "area with substrate ENLYFQY", "value": 0.0827}]}
{"variant": "MGESLFKGPRDYNPISSSICHLTNESDGHTTSLYGIGFGPFIITNKHLFRRNNGTLVVQSLHGVFKVKDTTTLQQHLVDGRDMIIIRMPKDFPPFPQKLKFREPQREERICLVTTNFQTKSMSSMVSDTSCTFPSGDGIFWKHWIQTKDGQCGSPLVSTRHGFIVGIHSASNFTNTNNYFTSVPKNFMELLTNQEAQQWVSGWRLNADSVLWGGHKVFMVKPEEPFQPVKEATQL", "note": "[D161H]", "values": [{"measurement": "area with substrate ENLYFQD", "value": 0.0614}, {"measurement": "area with substrate ENLYFQH", "value": 0.0643}, {"measurement": "area with substrate ENLYFQK", "value": 0.0614}, {"measurement": "area with substrate ENLYFQL", "value": 0.0552}, {"measurement": "area with substrate ENLYFQN", "value": 0.0482}, {"measurement": "area with substrate ENLYFQP", "value": 0.0619}, {"measurement": "area with substrate ENLYFQR", "value": 0.0755}, {"measurement": "area with substrate ENLYFQS", "value": 0.07}, {"measurement": "area with substrate ENLYFQT", "value": 0.076}, {"measurement": "area with substrate ENLYFQY", "value": 0.0555}]}
{"variant": "MGESLFKGPRDYNPISSSICHLTNESDGHTTSLYGIGFGPFIITNKHLFRRNNGTLVVQSLHGVFKVKDTTTLQQHLVDGRDMIIIRMPKDFPPFPQKLKFREPQREEHICLVTTNFQTKSMSSMVSDTSCTFPSGDGIFWKHWIQTKDGQCGSPLVSTRDGFIVGIHSASNFTNTNNYFTSVPKNFMELLTNQEAQQWVSGWRLNADSVLWGGHKVFMVKPEEPFQPVKEATQL", "note": "[R109H]", "values": [{"measurement": "area with substrate ENLYFQC", "value": 0.141}, {"measurement": "area with substrate ENLYFQH", "value": 0.0766}, {"measurement": "area with substrate ENLYFQL", "value": 0.0589}, {"measurement": "area with substrate ENLYFQN", "value": 0.0706}, {"measurement": "area with substrate ENLYFQR", "value": 0.0605}, {"measurement": "area with substrate ENLYFQS", "value": 0.0959}, {"measurement": "area with substrate ENLYFQT", "value": 0.0648}, {"measurement": "area with substrate ENLYFQV", "value": 0.0642}, {"measurement": "area with substrate ENLYFQW", "value": 0.0596}, {"measurement": "area with substrate ENLYFQY", "value": 0.0929}]}
{"variant": "MGESLFKGPRDYNPISSSICHLTNESDGHTTSLYGIGFGPFIITNKHLFRRNNGTLVVQSLHGVFKVKDTTTLQQHLVDGRDMIIIRMPKDFPPFPQKLKFREPQRNERICLVTTNFQTKSMSSMVSDTSCTFPSGDGIFWKHWIQTKDGQCGSPLVSTRDGFIVGIHSASNFTNTNNYFTSVPKNFMELLTNQEAQQWVSGWRLNADSVLWGGHKVFMVKPEEPFQPVKEATQL", "note": "[E107N]", "values": [{"measurement": "area with substrate ENLYFQC", "value": 0.107}, {"measurement": "area with substrate ENLYFQD", "value": 0.0641}, {"measurement": "area with substrate ENLYFQF", "value": 0.0829}, {"measurement": "area with substrate ENLYFQG", "value": 0.108}, {"measurement": "area with substrate ENLYFQI", "value": 0.0643}, {"measurement": "area with substrate ENLYFQK", "value": 0.0502}, {"measurement": "area with substrate ENLYFQL", "value": 0.0605}, {"measurement": "area with substrate ENLYFQM", "value": 0.0692}, {"measurement": "area with substrate ENLYFQN", "value": 0.0676}, {"measurement": "area with substrate ENLYFQR", "value": 0.0575}, {"measurement": "area with substrate ENLYFQS", "value": 0.114}, {"measurement": "area with substrate ENLYFQW", "value": 0.0693}]}
{"variant": "MGESLFKGPRDYNPISSSICHLTNESDGHTTSLYGIGFGPFIITNKHLFRRNNGTLVVQSLHGVFKVKDTTTLQQHLVDGRDMIIIRMPKDFPPFPQKLKFREPQREERICLVTTNFQTKSMSSMVSDTSCTFPSGDGIFWKHWIQTKDGQCGSPLVSTRDGFIVGIHSASNFTNTNNYFTSVPKNFMEGLTNQEAQQWVSGWRLNADSVLWGGHKVFMVKPEEPFQPVKEATQL", "note": "[L190G]", "values": [{"measurement": "area with substrate ENLYFQC", "value": 0.0928}, {"measurement": "area with substrate ENLYFQD", "value": 0.123}, {"measurement": "area with substrate ENLYFQG", "value": 0.151}, {"measurement": "area with substrate ENLYFQH", "value": 0.0654}, {"measurement": "area with substrate ENLYFQI", "value": 0.0654}, {"measurement": "area with substrate ENLYFQK", "value": 0.0617}, {"measurement": "area with substrate ENLYFQL", "value": 0.0633}, {"measurement": "area with substrate ENLYFQM", "value": 0.0526}, {"measurement": "area with substrate ENLYFQN", "value": 0.0713}, {"measurement": "area with substrate ENLYFQP", "value": 0.0739}, {"measurement": "area with substrate ENLYFQQ", "value": 0.0518}, {"measurement": "area with substrate ENLYFQR", "value": 0.0682}, {"measurement": "area with substrate ENLYFQS", "value": 0.0775}]}
